9 cell lines from the supplement of paper PMC4967469 can be followed below.

A lower IC50 marks a more sensitive line; a limit (>, <) means that the fit lies beyond the doses tested. AUC is the area under the same curve over the 256-fold range up to the top dose, as a fraction: 1 means no effect, lower means more sensitive. For part of these data: Any top dose called inferred was derived from the fitted curves, not read from the paper. For part of these data: An entry number marks a drug with two screens in the source, which often give different values.

Holding throughout (experiment): Viability of human cancer cell lines after 72 h of drug (GDSC screen)
Compound in experiment [1]: Nc1ccc(C(=O)Nc2cccc(-c3nc(N4CCOCC4)c4oc5ncccc5c4n3)c2)cn1 [YM201636]
Particulars: top dose 5.12 µM; top dose inferred. How it is done:
(§1)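 Human cancer cell lines in 384-well plates, medium with 10% serum, drug for 72 h over a 256-fold dose range (nine 2-fold or five 4-fold steps up to the top dose). Adherent lines were fixed and stained with the nucleic acid dye Syto60, suspension lines read with resazurin; signal relative to control wells, capped at 0 and 100%. One two-parameter sigmoid per drug and line, fitted in a mixed model over all curves with the slope shared within a line.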

Compound in experiment [2]: NC(=O)C1CCCc2c1[nH]c1ccc(Cl)cc21 [EX-527]
The conditions noted are these: top dose 20 µM. The protocol:
as §1

Compound in experiment [3]: Cc1ccc(NC(=O)c2cccc(C(C)(C)C#N)c2)cc1Nc1ccc2ncn(C)c(=O)c2c1 [AZ628]
Particulars: top dose 4 µM; top dose inferred. How it is done: as §1

Compound in experiment [4]: N#CC(c1ccnc(NCCc2cccnc2)n1)c1nc2ccccc2s1 [AS601245]
The conditions noted are these: top dose 8 µM; top dose inferred. How it is done:
as §1

Compound in experiment [5]: Cn1cnc2c(F)c(Nc3ccc(Br)cc3Cl)c(C(=O)NOCCO)cc21 [AZD6244]
Particulars: top dose 4 µM; screen: GDSC drug entry 1498; top dose inferred. How it is done:
as §1

Turning to VA-ES-BJ (soft tissue, adherent), the AUC in experiment [1] stood at 0.956; in experiment [2], 0.985; in experiment [3], 0.969; in experiment [4], 0.844; in experiment [5], 0.978. For the same cell line, the IC50 – broadly, the point on the concentration scale where inhibition reaches its midpoint – in experiment [1] is more than 5.12 µM; in experiment [2], more than 20 µM; in experiment [3], more than 4 µM; in experiment [4], 6.2 µM; in experiment [5], more than 4 µM.

Take VAL (B-cell lymphoma, suspension): the AUC in experiment [1] amounted to 0.809; in experiment [2] it was 0.968; in experiment [3], 0.722; in experiment [4] it was 0.826; in experiment [5] it was 0.985. Moreover, the IC50 in experiment [1] was 2.68 µM; in experiment [2] it was more than 20 µM; in experiment [3] it was 1.07 µM; in experiment [4], 4.87 µM; in experiment [5] it was more than 4 µM.

For the cell line VCaP (prostate, adherent), the AUC in experiment [1] was 0.833; in experiment [2], 0.902; in experiment [3], 0.969; in experiment [4], 0.885; in experiment [5], 0.983. Besides, the IC50 in experiment [1] was 3.49 µM; in experiment [2], more than 20 µM; in experiment [3], more than 4 µM; in experiment [4] it was more than 8 µM; in experiment [5], more than 4 µM.

Turning to WIL2-NS (lymphoid neoplasm, suspension), the AUC stood at 0.839 in experiment [1]; 0.992 in experiment [2]; 0.948 in experiment [3]; 0.875 in experiment [4]; 0.982 in experiment [5]. For the same cell line, the IC50 is 2.6 µM in experiment [1]; more than 20 µM in experiment [2]; more than 4 µM in experiment [3]; 5.46 µM in experiment [4]; more than 4 µM in experiment [5].

On to WSU-DLCL2 (B-cell lymphoma, suspension), for which the AUC was found to be 0.946 in experiment [1]; 0.992 in experiment [2]; 0.993 in experiment [3]; 0.774 in experiment [4]; 0.975 in experiment [5]. In addition, the IC50 in experiment [1] was more than 5.12 µM; in experiment [2], more than 20 µM; in experiment [3], more than 4 µM; in experiment [4] it was 2.62 µM; in experiment [5], more than 4 µM.

With WSU-NHL (lymphoid neoplasm, suspension), the AUC in experiment [1] is 0.835; in experiment [2], 0.985; in experiment [3] it was 0.943; in experiment [4] it was 0.849; in experiment [5], 0.985. Further, the half-inhibitory concentration (IC50) was 2.82 µM in experiment [1]; more than 20 µM in experiment [2]; more than 4 µM in experiment [3]; 4.96 µM in experiment [4]; more than 4 µM in experiment [5].

Turning to YT (lymphoid neoplasm, suspension), the AUC stood at 0.863 in experiment [1]; 0.981 in experiment [2]; 0.936 in experiment [3]; 0.892 in experiment [4]; 0.991 in experiment [5]. Also, the IC50 was 3.36 µM in experiment [1]; more than 20 µM in experiment [2]; more than 4 µM in experiment [3]; 6.93 µM in experiment [4]; more than 4 µM in experiment [5].

Regarding no-10 (glioma, adherent), the AUC turned out to be 0.951 in experiment [1]; 0.983 in experiment [2]; 0.918 in experiment [3]; 0.925 in experiment [4]; 0.913 in experiment [5]. Further, the IC50 in experiment [1] is more than 5.12 µM; in experiment [2] it was more than 20 µM; in experiment [3], more than 4 µM; in experiment [4], more than 8 µM; in experiment [5], more than 4 µM.

With no-11 (glioma, adherent), the AUC worked out at 0.954 in experiment [1]; 0.981 in experiment [2]; 0.982 in experiment [3]; 0.879 in experiment [4]; 0.919 in experiment [5]. In addition, the IC50 in experiment [1] is more than 5.12 µM; in experiment [2], more than 20 µM; in experiment [3] it was more than 4 µM; in experiment [4], more than 8 µM; in experiment [5], more than 4 µM.
